Measured values taken from PubChem BioAssay AID485360 (National Center for Advancing Translational Sciences (NCATS), 2010).
Out of some 230,000 compounds screened, about 1,500 (0.65%) were called active. Inconclusive means that the source gave no clear call. Such entries were picked first, then a sample of the others. Calls follow the shape of the dose curve; as a rule, active = well fitted inhibition curve with a large enough effect; inconclusive = small, poorly fitted or top-dose-only effect; inactive = no such curve, though single readings can be large or run the other way. A potency beside an inconclusive call is a rough fit, not a confirmed value.

Biological target: Lethal(3)malignant brain tumor-like protein 1 (Homo sapiens) (UniProt Q9Y468)
Assay: qHTS Assay for the Inhibitors of L3MBTL1; also: nearly all actives have a fitted effect of over 60% in size
Settings: AlphaScreen L3MBTL1–H3K9me1 peptide binding; activity, negative = inhibition: at 57.1 µM (top of the series)
Outline: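 L3MBTL1 (50 nM) pre-complexed 30 min with biotinylated H3(1-15)K9me1 peptide (75 nM), then compounds added for 30 min at room temperature; AlphaScreen streptavidin donor/nickel chelate acceptor beads (10 ug/mL final) read after 30 min dark incubation.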
% is scaled to controls: 0 for no effect and ±100 for the full control effect; potency is read from the fitted curve at half-maximal effect; tags tell the direction and shape of the fitted curve.

Sequence of UniProt Q9Y468 (Q9Y468 whole entry, looked up): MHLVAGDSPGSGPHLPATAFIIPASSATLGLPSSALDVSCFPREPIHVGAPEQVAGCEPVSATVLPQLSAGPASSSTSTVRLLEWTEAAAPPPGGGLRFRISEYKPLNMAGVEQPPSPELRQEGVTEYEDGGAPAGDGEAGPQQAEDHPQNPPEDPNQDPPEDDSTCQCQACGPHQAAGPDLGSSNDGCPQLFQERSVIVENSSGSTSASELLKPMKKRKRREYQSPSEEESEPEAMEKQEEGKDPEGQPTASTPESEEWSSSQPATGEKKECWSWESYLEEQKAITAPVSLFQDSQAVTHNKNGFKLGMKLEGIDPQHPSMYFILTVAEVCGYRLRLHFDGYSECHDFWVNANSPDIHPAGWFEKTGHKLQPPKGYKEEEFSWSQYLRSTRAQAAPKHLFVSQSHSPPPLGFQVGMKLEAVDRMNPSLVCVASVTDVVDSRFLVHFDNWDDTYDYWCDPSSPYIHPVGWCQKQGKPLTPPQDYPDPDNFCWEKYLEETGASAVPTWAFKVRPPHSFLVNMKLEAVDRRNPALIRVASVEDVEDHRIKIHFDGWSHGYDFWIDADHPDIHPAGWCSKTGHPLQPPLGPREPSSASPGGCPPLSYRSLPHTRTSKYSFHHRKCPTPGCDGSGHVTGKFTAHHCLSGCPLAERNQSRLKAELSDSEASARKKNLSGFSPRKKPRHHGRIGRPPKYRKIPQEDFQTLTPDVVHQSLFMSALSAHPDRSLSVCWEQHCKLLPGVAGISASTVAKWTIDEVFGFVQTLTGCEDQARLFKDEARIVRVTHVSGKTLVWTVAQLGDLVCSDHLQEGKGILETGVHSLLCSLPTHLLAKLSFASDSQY

Compound | Potency | activity, negative = inhibition
Cc1ccc(C)c(S(=O)(=O)NCc2ccc(C(=O)N3CC(C)OC(C)C3)cc2)c1 (centres undefined) | inconclusive: 10 µM [inhibitor, full curve, poor fit] | –
Cc1sc2ccccc2[n+]1CC(=O)O | – | inactive: -6.06%
COc1cc(NC(=O)Nc2ccccc2OC)c(OC)cc1NC(=O)CN1CCCCC1 | inconclusive: 28.2 µM [inhibitor, single point] | –
Cc1ccc(S(=O)(=O)N2CCN(C(=O)c3cccc(-n4cccc4)c3)CC2)cc1 | inconclusive: 22.4 µM [inhibitor, single point] | –
CCn1c(Cc2ccccc2)nnc1SCC(=O)Nc1ccc(N2CCOCC2)c(Cl)c1 | inconclusive: 39.8 µM [inhibitor, single point] | –
COc1ccc(/C=C\C(=O)NCC(=O)N/N=C/c2ccc(O)cc2O)cc1 | inconclusive: 39.8 µM [inhibitor, single point] | –
Cc1ccc(C(=O)NC(=C(Cl)Cl)S(=O)(=O)c2ccccc2)cc1 | inconclusive: 39.8 µM [inhibitor, single point] | –
COc1ccc(OC)c(NC(=O)Cc2csc(NC(=O)Nc3ccccc3OC)n2)c1 | – | inactive: -16.2%
O=[N+]([O-])c1cc(Cl)ccc1N1CCN(c2cccc(C(F)(F)F)c2)CC1 | inconclusive: 15.8 µM [inhibitor, partial curve] | –
CCc1sc2nc(SCC(=O)Nc3cc(C)on3)n(-c3cccc(OC)c3)c(=O)c2c1C | – | inactive: -9.02%
CC(C)(C)c1csc(NC(=O)Cc2cccs2)n1 | – | inactive: -18.1%
Cc1cc(C)nc(N(C#N)CCOc2ccc(Cl)cc2)n1 | inconclusive: 6.31 µM [inhibitor, single point] | –
NS(=O)(=O)c1ccc(NC(=O)/C=C/c2ccco2)cc1 | inconclusive: 35.5 µM [inhibitor, single point] | –
COc1ccc(N(C(=O)Cn2nnc3ccccc32)C(C(=O)NCc2ccco2)c2cccnc2)cc1 (centres undefined) | inconclusive: 6.31 µM [inhibitor, single point] | –
Oc1ccc(-c2nc3ccccc3s2)c(O)c1 | – | inactive: 20.3%
S=C(Nc1ccc2nccnc2c1)N1CCOCC1 | inconclusive: 28.2 µM [inhibitor, partial curve] | –
O=[N+]([O-])c1ccccc1/C=N/N1CCN(c2ccccn2)CC1 | inconclusive: 28.2 µM [inhibitor, single point] | –
CCOC(=O)c1c(NC(=O)Cc2ccccc2)sc2c1CC(C)(C)NC2(C)C | – | inactive: -4.12%
CC(=O)[C@@H]1[C@@H]2C(=O)N(C3CCCCC3)C(=O)[C@@H]2C2c3ccccc3C=CN21 (some centres undefined) | – | inactive: 3.73%
CN1CCN(CCNC(=O)Nc2ccccc2C(F)(F)F)CC1 | – | inactive: 0.581%
O=C(COC(=O)c1ccccc1)Nc1ncc([N+](=O)[O-])s1 | active: 3.55 µM | –
CC(C)OC(=O)CSc1nc(-c2ccc(F)cc2)cc(C(F)(F)F)n1 | inconclusive: 4.47 µM [inhibitor, single point] | –
Cc1cccc2sc(NC(=O)C3CCN(S(=O)(=O)c4cc([N+](=O)[O-])ccc4Cl)CC3)nc12 | inconclusive: 35.5 µM [inhibitor, single point] | –

Compound | Potency | activity, negative = inhibition
COc1ccc(-n2c(=O)c3ccccc3n(CC(=O)Nc3cc(C)on3)c2=O)cc1OC | inconclusive: 5.62 µM [inhibitor, single point] | –
CN1CCC(N(C)S(=O)(=O)c2ccc(Cl)cc2)CC1 | inconclusive: 22.4 µM [inhibitor, single point] | –
CCCCC[C@H](O)/C=C/[C@@H]1[C@@H](C/C=C\CCCC(=O)OC)[C@@H](O)C[C@H]1O | – | inconclusive: -88.8% [inhibitor]
c1csc(Cc2nn3c(-c4ccncc4)nnc3s2)c1 | inconclusive: 31.6 µM [inhibitor, single point] | –
CCOC(=O)C1CCN(CCC(=O)Nc2cccc(C)c2)CC1 | inconclusive: 3.16 µM [inhibitor, partial curve] | –
COc1cccc(N2CCN(CC(=O)NCc3cccs3)CC2)c1 | inconclusive: 5.62 µM [inhibitor, single point] | –
NS(=O)(=O)c1ccc(NC(=O)COC(=O)c2ccc([N+](=O)[O-])s2)cc1 | inconclusive: 35.5 µM [inhibitor, single point] | –
CC(=O)NC1CCCN(O)C(=O)/C=C(\C)CCOC(=O)C(NC(C)=O)CCCN(O)C(=O)/C=C(\C)CCOC(=O)C(NC(C)=O)CCCN(O)C(=O)/C=C(\C)CCOC1=O (centres undefined) | – | inactive: 25.8%
CNc1ccc(Br)cc(C(=O)/C=C/c2ccc(OC)cc2OC)c1=O | inconclusive: 39.8 µM [inhibitor, single point] | –
O=[N+]([O-])c1cc(S(=O)(=O)N2CCCC2)ccc1N/N=C/c1cccs1 | inconclusive: 35.5 µM [inhibitor, partial curve] | –
COc1cc(C2C(C#N)=C(N)Oc3cc(C)n(CCN4CCOCC4)c(=O)c32)cc(OC)c1OC (centres undefined) | – | inactive: 1.27%
O=C(NCc1cccnc1)C(=O)Nc1nccs1 | – | inactive: 2.11%
CCOC(=O)N1CCN(S(=O)(=O)c2ccc(C(=O)NNc3nc4cc(C)cc(C)c4s3)cc2)CC1 | inconclusive: 12.6 µM [inhibitor, partial curve] | –
Cc1ccc(NC(=O)Nc2cc(C)on2)cc1 | inconclusive: 0.158 µM [inhibitor, full curve, poor fit] | –
COc1nc2ccccc2nc1CCC(=O)O | inconclusive: 10 µM [inhibitor, partial curve, poor fit] | –
O=C(c1ccc(S(=O)(=O)N2CCOCC2)cc1)N1CCOCC1 | inconclusive: 7.08 µM [inhibitor, single point] | –
N#Cc1c(N)sc(=S)c2c1CCCCC2 | inconclusive: 25.1 µM [inhibitor, single point] | –
CC(C)N1CCN(Cc2cccc(-c3ccco3)c2)CC1CCO (centres undefined) | inconclusive: 17.8 µM [inhibitor, partial curve] | –
Cc1nnc(N(C)C(=O)Cc2ccc3c(c2)OCO3)s1 | inconclusive: 6.31 µM [inhibitor, single point] | –
Cc1c(-c2ccccc2)sc(N)c1C(=O)N1CCOCC1 | – | inactive: 1.88%
N#Cc1nc(-c2ccc(OCc3ccccc3)cc2)oc1NCCCn1ccnc1 | inconclusive: 31.6 µM [inhibitor, partial curve] | –
Nc1ccc(O)c(-c2nc3ccccc3s2)c1 | inconclusive: 10 µM [inhibitor, partial curve] | –
CC1=CC(=Nc2c(C)n(C)n(-c3ccccc3)c2=O)C=C(C)C1=O | – | inactive: -12.7%

Compound | Potency | activity, negative = inhibition
CCCC[N+](C)(C)CCC(=O)NC(C)(C)CS(=O)(=O)[O-] | active: 20 µM | –
O=[N+]([O-])c1cc(Br)c2nsnc2c1N1CCOCC1 | inconclusive: 31.6 µM [inhibitor, single point] | –
CC1(c2ccc3noc(-c4ccc(Cl)cc4)c3c2)OCCO1 | – | inactive: -2.66%
CCN1/C(=C/C=C/C=C/c2sc3ccccc3[n+]2CC)Sc2ccccc21 | – | inconclusive: -60% [inhibitor]
OC1CCN(C(=S)Nc2ccc(Nc3ccccc3)cc2)CC1 | inconclusive: 25.1 µM [inhibitor, single point] | –
Cc1cccc(C)c1NC(=O)CN(c1ccccn1)S(=O)(=O)c1ccccc1 | inconclusive: 0.1 µM [inhibitor, full curve, poor fit] | –
CC(C)(NO)/C(=N/O)c1cccs1 | – | inactive: 5.03%
CCCCOc1cc(NCc2ccccc2)c2ncn(C(C)C)c2c1 | inconclusive: 39.8 µM [inhibitor, single point] | –
O=C(CN1CCN(S(=O)(=O)c2ccc(Cl)c(Cl)c2)CC1)N1CCCCC1 | inconclusive: 0.141 µM [inhibitor, partial curve, poor fit] | –
COc1ccc(Cc2noc(CN3CCC(c4ccncc4)CC3)n2)cc1OC | inconclusive: 5.01 µM [inhibitor, single point] | –
CC1CCC2C(=O)N(c3ccc(NC4CCCCC4)c([N+](=O)[O-])c3)C(=O)C2C1 (centres undefined) | inconclusive: 28.2 µM [inhibitor, partial curve] | –
c1cncc(-c2cccnc2)c1 | – | inactive: 4.51%
CN1CCc2c(sc(NC(=O)Cc3ccccc3)c2C#N)C1 | inconclusive: 39.8 µM [inhibitor, single point] | –
Cc1cc([N+](=O)[O-])c(C)cc1-c1ccc(/C=N/NC(=O)Cn2nnnc2N)o1 | inconclusive: 0.794 µM [inhibitor, full curve, poor fit] | –
Cc1ccc(C(=O)Oc2coc(CSc3nnc(NC(=O)c4cccs4)s3)cc2=O)cc1 | inconclusive: 39.8 µM [inhibitor, single point] | –
Cc1nn(-c2ccccc2)c(N2CCCC2)c1/C=N/Nc1ccc(S(N)(=O)=O)cc1[N+](=O)[O-] | inconclusive: 28.2 µM [inhibitor, single point] | –
CCCCOC(=O)c1ccc(NC(=S)NC(=O)c2c(Br)c(C)nn2C)cc1 | – | inactive: 26.8%
COc1cnc(-c2ccccn2)nc1NC(C)C | active: 1 µM | –
Cc1nc(SC(C)C(=O)NCC2CCCO2)c2cc(-c3ccccc3)sc2n1 (centres undefined) | – | inactive: -10.4%
Cc1cc(C(=O)CSc2nnc(-c3ccncc3)n2-c2ccccc2)c(C)n1C | – | inactive: -24.1%
O=C(CSc1nnc(-c2ccc(Cl)cc2)n1Cc1ccco1)c1cccs1 | inconclusive: 5.62 µM [inhibitor, single point] | –
O=C1C(=Cc2ccco2)C(=O)c2ccccc21 | inconclusive: 25.1 µM [inhibitor, single point] | –
COc1ccc(C2c3[nH]c4ccccc4c3CCN2CCCn2cccn2)c(F)c1 (centres undefined) | inconclusive: 35.5 µM [inhibitor, partial curve] | –
